Screen size: about 360,000 compounds; about 520 (0.14%) were called active. This list was built around the results that the source calls inconclusive (neither active nor inactive); the mix of calls is not that of the screen. The call rests on the fitted dose curve; in most records, active means well fitted inhibition curve with a large enough effect; inconclusive means small, poorly fitted or top-dose-only effect; inactive means no such curve, though single readings can be large or run the other way. Potencies of inconclusive entries are doubtful fits and often do not repeat.
Target: Rap guanine nucleotide exchange factor 3 (Homo sapiens) (UniProt O95398)
Test: qHTS for Antagonist of cAMP-regulated guanine nucleotide exchange factor 3 (EPAC1): primary screen; further: nearly all actives have a fitted effect of over 50% in size;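 on activity change, negative = inhibition: plate controls were vehicle for no effect and positive control for full effect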
Details: EPAC1 GEF assay, Rap1b-BODIPY-GDP exchange fluorescence; activity change, negative = inhibition: at 115 µM (top of the series)
Potency means the concentration at half of the fitted maximal effect; tags describe the fitted curve by direction and shape.

UniProt O95398, sequence (O95398 whole entry, looked up): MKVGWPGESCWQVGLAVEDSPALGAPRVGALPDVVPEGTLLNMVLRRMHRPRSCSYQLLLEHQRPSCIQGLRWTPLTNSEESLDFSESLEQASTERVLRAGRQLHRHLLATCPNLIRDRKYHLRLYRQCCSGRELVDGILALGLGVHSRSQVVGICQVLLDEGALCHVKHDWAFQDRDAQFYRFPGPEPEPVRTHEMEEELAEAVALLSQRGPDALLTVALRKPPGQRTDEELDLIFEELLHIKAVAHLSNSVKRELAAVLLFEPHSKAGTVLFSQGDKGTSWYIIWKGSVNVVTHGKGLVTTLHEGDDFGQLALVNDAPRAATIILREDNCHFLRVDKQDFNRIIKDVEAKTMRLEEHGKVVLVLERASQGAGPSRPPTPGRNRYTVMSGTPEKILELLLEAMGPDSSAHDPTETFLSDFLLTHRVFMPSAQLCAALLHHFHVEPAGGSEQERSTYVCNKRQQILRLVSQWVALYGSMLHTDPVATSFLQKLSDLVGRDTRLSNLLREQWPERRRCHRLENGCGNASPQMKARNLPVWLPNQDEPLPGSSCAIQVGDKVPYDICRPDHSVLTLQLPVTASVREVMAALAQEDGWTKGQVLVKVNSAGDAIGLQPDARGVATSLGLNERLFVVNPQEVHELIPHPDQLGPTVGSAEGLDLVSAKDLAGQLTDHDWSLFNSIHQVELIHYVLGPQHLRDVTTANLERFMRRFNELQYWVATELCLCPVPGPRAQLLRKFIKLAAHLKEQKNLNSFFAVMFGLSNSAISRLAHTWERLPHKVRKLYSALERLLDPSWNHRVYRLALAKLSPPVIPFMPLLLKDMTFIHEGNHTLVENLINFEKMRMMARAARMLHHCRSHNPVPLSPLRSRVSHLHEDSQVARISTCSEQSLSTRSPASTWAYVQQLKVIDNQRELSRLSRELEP

Potency, active:
O=C(N/N=C/c1ccc(Sc2ccccn2)o1)c1cc2ccccc2cc1O 56.2 µM

Potency, inconclusive:
O=C(NCc1cc(C(F)(F)F)ccc1Cl)c1cccc2c1C(=O)c1ccc(N3CCOCC3)cc1S2(=O)=O 100 µM [inhibitor, partial curve]
CCOC(=O)C1=C(N)N2C(=O)C(C)SC2=C(C(=O)OC)C1c1ccccc1OC (configuration not stated) 28.2 µM [inhibitor, partial curve]
Cc1cc(NC(=O)CCc2ccc(-c3ccccc3)o2)no1 100 µM [inhibitor, single point]
Cc1ccc(NC(=O)CN(C)CC(=O)Nc2cccc(F)c2)cc1S(=O)(=O)N1CCCCCC1 39.8 µM [inhibitor, single point]
CCOc1ccc(CCN2C(=S)N([C@@H](CC(C)C)CN3CCCC3CN3C(=S)NC[C@@H]3CC(C)C)C[C@@H]2Cc2ccc(O)cc2)cc1 (some centres not stated) 79.4 µM [inhibitor, partial curve]
CCCn1c(O)c(/C=C2\C=NN=C2c2ccccc2)sc1=S 25.1 µM [inhibitor, full curve, poor fit]
CC(=O)Nc1ccc(S(=O)(=O)NCCSCc2ccccc2Cl)cc1 89.1 µM [inhibitor, partial curve, poor fit]
CCOc1cc(Br)cc(C(c2c(C(=O)O)[nH]c3ccccc23)c2c(C(=O)O)[nH]c3ccccc23)c1O 17.8 µM [inhibitor, full curve]
CCN(CCNCC(O)COc1ccccc1C(C)C)c1cccc(C)c1 (configuration not stated) 56.2 µM [inhibitor, partial curve, poor fit]
CCc1c(O)cc(=O)n(-c2ccccc2)c1-c1ccccc1 10 µM [inhibitor, partial curve]
CC(C)C1N=C2c3ccccc3N=C(SCC(=O)c3ccc(O)c(O)c3)N2C1=O (configuration not stated) 56.2 µM [inhibitor, partial curve]
CCN(C(=O)C(C)Sc1ccc(S(=O)(=O)N2CCOCC2)cn1)c1ccccc1 (configuration not stated) 89.1 µM [inhibitor, single point]
COc1cc(NC(=O)c2ccc(N)nc2)cc(C(=O)Nc2cccc(C(F)(F)F)c2)c1 56.2 µM [inhibitor, partial curve]
COc1cc(NC(=O)C(=O)NNC(=O)C2CCCCC2)c(OC)cc1Cl 100 µM [inhibitor, single point]
COC(=O)CNc1cc(S(=O)(=O)N2CCCCC2)ccc1Oc1cccc(C)c1 7.08 µM [inhibitor, full curve, poor fit]
COc1ccc(N(CC(=O)NC2CCCCC2)C(=O)c2ccc(C)s2)c(OC)c1 70.8 µM [inhibitor, single point]
C=CCOc1ccc(/C(O)=C2/C(=O)C(=O)N(CCCn3ccnc3)C2c2cccs2)cc1 (configuration not stated) 39.8 µM [inhibitor, single point]
Cc1ccc(NC(=O)C2(C)CCN2Cc2cccc3c2OCO3)cc1O (configuration not stated) 50.1 µM [inhibitor, partial curve]
COCCNC(=O)CS(=O)Cc1nc(-c2ccc(Cl)cc2)oc1C (configuration not stated) 17.8 µM [inhibitor, single point]
O=c1nc(/C=C/c2cccn2-c2ccc([N+](=O)[O-])cc2)cc(C(F)(F)F)[nH]1 50.1 µM [inhibitor, partial curve]
O=S(=O)(c1ccccc1)c1cnc(-c2ccccc2)nc1N1CCCC1 14.1 µM [inhibitor, full curve, poor fit]
O=C(/C=C/c1ccc(Cl)c([N+](=O)[O-])c1)c1ccc(O)cc1 100 µM [inhibitor, partial curve]
CCCCC[C@@H]1C=C(C(=O)O)[C@H](c2ccc(CC)cc2)N1S(=O)(=O)c1ccc(C)cc1 39.8 µM [inhibitor, partial curve]
CCOC(=O)C1=C(C)N(CCCC(=O)O)C(=O)NC1C(CC)CC (configuration not stated) 39.8 µM [inhibitor, single point]
NC(=O)C1CCN(C(=O)C(Cc2ccccc2)NC(=O)c2ccccc2)CC1 (configuration not stated) 39.8 µM [inhibitor, partial curve]
COc1cc2c3c(c1)c(N=NC(N)=S)c(O)n3C(C)(C)C=C2C 100 µM [inhibitor, partial curve]

Potency, inactive:
CN(C/C=C/c1ccccc1)C1CCCCC1
Nc1nc(-c2ccccc2)c(-c2ccccc2)n1N
CC(C)(C)c1ccc(OCCC(=O)OCC(=O)Nc2ccc(N3CCOCC3)cc2)cc1
CN1CC(=O)N(CC(=O)Nc2ccc(N(C)C)cc2)c2ccccc2C1=O
CCCSc1nc2c([nH]1)c(=O)n(C)c(=S)n2C
CSCCC(NC(=O)c1ccc(Cl)c([N+](=O)[O-])c1)C(=O)N1CCN(C/C=C/c2ccccc2)CC1 (configuration not stated)
C/C(=N\Nc1cccc(C(F)(F)F)c1)c1ccc(O)cc1
Fc1ccc(C2=CC(c3ccco3)n3ncnc3N2)cc1 (configuration not stated)
Cc1ccc(N2NC3(CCN(C(N)=O)CC3)NC2=O)cc1
COc1ccc(OC)c(C(=O)CCCC(=O)c2cc(OC)ccc2OC)c1
O=c1c2ccccc2ncn1CCCOc1ccccc1[N+](=O)[O-]
C[C@H]1CN([C@@H](C)CO)C(=O)c2c(c3ccccc3n2C)-c2ccccc2CO[C@H]1CN(C)C(=O)[C@@H]1CCCN1C
COc1ccccc1N1C(=O)S/C(=C\c2ccc(C)s2)C1=O

Activity change, negative = inhibition, inconclusive:
C[C@@]12C(=O)N(c3cccc(Cl)c3)C(=O)N1[C@H](c1ccc(Cl)cc1)[C@@H]1C(=O)N(C3CCCCC3)C(=O)[C@@H]12 -13% [inhibitor]
CC(C)c1cc(C(=O)NNC(=S)NC2CCCCC2)cs1 -32.4% [inhibitor]

Source: PubChem BioAssay AID720709 (National Center for Advancing Translational Sciences (NCATS), 2013)
